# Where “and” joins values, the source holds several entries; their conditions need not be identical. Equal values may be shown once. Inconclusive means that the source gave no clear call. Such entries were picked first, then a sample of the others. A potency beside an inconclusive call is a rough fit, not a confirmed value. Calls of active or inactive are those of the source. Calls come from the whole dose curve; as a rule, active = well fitted curve in the direction sought with a large enough effect; inconclusive = small, poorly fitted or top-dose-only effect, or another doubt; inactive = no such curve, though single readings can be large; an effect the other way counts as inactive or inconclusive.
# Assays:
# [1] = qHTS for Inhibitors of Plasmodium falciparum (DD2) proliferation (AID 504314);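 for activity, negative = inhibition: parasite DNA measured by SYBR Green fluorescence after red cell lysis; plate controls were DMSO vehicle for no effect and artemisinin wells for full effect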; conditions: P. falciparum Dd2 in erythrocytes, SYBR Green growth, 72 h; activity, negative = inhibition: at 6.11 µM (top of the series)
# Method in brief: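 Erythrocytes infected with P. falciparum Dd2 (0.3% parasitemia, 2.5% hematocrit) exposed to compound 72 h at 37C, 5% CO2. Parasite DNA quantified by SYBR Green fluorescence after saponin/Triton lysis overnight; normalized to 0.29 uM artemisinin and DMSO.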
# [2] = qHTS for Inhibitors of Plasmodium falciparum (GB4) proliferation (AID 504315); note: nearly all actives have a fitted effect of over 50% in size;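 for activity change, negative = inhibition: 0% = DMSO vehicle and -100% = 0.29 µM artemisinin control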; conditions: P. falciparum GB4 in erythrocytes, SYBR Green DNA, 72 h; activity change, negative = inhibition: at 6.7 µM (top of the series)
# Method in brief: (§1)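 Erythrocytes infected with P. falciparum line (0.3% parasitemia, 2.5% hematocrit final) incubated with compounds 72 h at 37 °C, 5% CO2; SYBR Green lysis buffer added, fluorescence read next day. Normalized to 0.29 uM artemisinin and DMSO.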
# [3] = qHTS for Inhibitors of Plasmodium falciparum (7G8) proliferation (AID 504316); note: nearly all actives have a fitted effect of over 65% in size;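 for activity change, negative = inhibition: 0% = DMSO vehicle and -100% = 0.29 µM artemisinin full kill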; conditions: P. falciparum 7G8 in erythrocytes, SYBR Green DNA, 72 h; activity change, negative = inhibition: at 6.7 µM (top of the series)
# Method in brief: as §1
# [4] = qHTS for Inhibitors of Plasmodium falciparum (HB3) proliferation (AID 504318); note: nearly all actives have a fitted effect of over 60% in size;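 for activity change, negative = inhibition: 0% = DMSO vehicle and -100% = artemisinin control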; conditions: P. falciparum HB3 in erythrocytes, SYBR Green DNA, 72 h; activity change, negative = inhibition: at 7.21 µM (top of the series)
# Method in brief: as §1
# Potency is the fitted concentration of half-maximal effect; tags give direction and shape of the fitted curve.
SMILES,Potency [1],Potency [2],Potency [3],Potency [4],"activity, negative = inhibition [1]"
COc1cccc([C@@H]2Oc3ccc(OC)cc3C(=O)[C@@H]2O)c1,"inconclusive: 4.24 µM [inhibitor, single point]","inconclusive: 1.51 µM [inhibitor, single point]","inconclusive: 2.13 µM [inhibitor, single point]","inconclusive: 4.15 µM [inhibitor, single point]",–
CC1=C[C@@H](COCc2ccccc2)O[C@@]2(C1)C(=O)N(Cc1ccccc1C(F)(F)F)c1ccccc12,"inconclusive: 3.36 µM [inhibitor, single point]","inconclusive: 1.69 µM [inhibitor, single point]","inconclusive: 0.478 µM [inhibitor, single point]","inconclusive: 1.69 µM [inhibitor, partial curve]",–
CCOC(=O)CN1C(=O)[C@]2(O[C@H](C)CC3=CCCC32)c2c(Br)cccc21 (stereo partly drawn),inactive,inactive,inactive,"inconclusive: 0.478 µM [inhibitor, partial curve, poor fit]",–
CC1=CC[C@@H](C)O[C@@]2(C1)C(=O)N(Cc1ccc(F)cc1)c1ccccc12,"inconclusive: 4.24 µM [inhibitor, single point]",inactive,"inconclusive: 1.9 µM [inhibitor, single point]","inconclusive: 1.69 µM [inhibitor, partial curve, poor fit]",–
C#CCN1C(=O)[C@]2(O[C@H](COc3ccccc3)CC3=C2CCC3)c2ccccc21,"inconclusive: 4.24 µM [inhibitor, single point]","inconclusive: 2.13 µM [inhibitor, single point]","inconclusive: 3.38 µM [inhibitor, single point]","inconclusive: 1.51 µM [inhibitor, single point]",–
C=CCNC(=O)N1CCc2nc(-c3ccc(OC)cc3C)c3c(c2C1)CO[C@@H](c1ccccc1)C3,"inconclusive: 1.5 µM [inhibitor, single point] and inconclusive: 82.7 nM [inhibitor, single point]","inconclusive: 1.69 µM [inhibitor, partial curve]",active: 1.51 µM,"inconclusive: 2.62 µM [inhibitor, partial curve] and inconclusive: 30.1 nM [inhibitor, full curve, poor fit]",–
COc1ccc([C@]23Cc4cc(OC)c(OC)cc4[C@H](O2)c2c(cc(C)n(Cc4ccccc4)c2=O)O3)cc1,"inconclusive: 1.34 µM [inhibitor, partial curve]","inconclusive: 1.69 µM [inhibitor, single point]","inconclusive: 1.69 µM [inhibitor, partial curve, poor fit]","inconclusive: 1.69 µM [inhibitor, partial curve]",–
CCCCc1cc2c(cn1)=C(OC(=O)c1ccc(Cl)nc1)C(C)(OC(=O)CC)C(=O)C=2 (stereo not drawn),"inconclusive: 0.0585 µM [inhibitor, partial curve, poor fit]","inconclusive: 3.38 µM [inhibitor, single point]","inconclusive: 4.26 µM [inhibitor, single point]","inconclusive: 4.78 µM [inhibitor, single point]",–
COC1=C[C@H](C(=O)N[C@H]2CCCC[C@H]2NC(C)=O)[C@@]2(C)Cc3ccccc3[C@@H]2CC1=O,"inconclusive: 1.69 µM [inhibitor, single point]","inconclusive: 4.26 µM [inhibitor, partial curve, poor fit]","inconclusive: 0.426 µM [inhibitor, partial curve]","inconclusive: 1.51 µM [inhibitor, partial curve]",–
C=CC[C@](C)(O)c1ccccc1,"inconclusive: 1.06 µM [inhibitor, partial curve, poor fit]","inconclusive: 2.13 µM [inhibitor, single point]",active: 1.51 µM,"inconclusive: 1.51 µM [inhibitor, single point]",–
COc1ccc2c(c1)[C@@H](NC(=O)C(F)(F)F)[C@@H]1CCCC[C@]21c1ccccc1,inactive,"inconclusive: 0.849 µM [inhibitor, partial curve, poor fit]",inactive,"inconclusive: 2.13 µM [inhibitor, single point]",–
CCCCc1cc2c(cn1)=C(OC(=O)c1ccco1)C(C)(OC(=O)CC)C(=O)C=2 (stereo not drawn),"inconclusive: 3.78 µM [inhibitor, single point]","inconclusive: 2.39 µM [inhibitor, single point] and inconclusive: 1.9 µM [inhibitor, single point]",active: 1.51 µM,"inconclusive: 1.51 µM [inhibitor, partial curve]",–
CCCCS(=O)(=O)N1CCc2nc(-c3ccc(OC)cc3C)c3c(c2C1)CO[C@@H](c1ccccc1)C3,–,"inconclusive: 2.13 µM [inhibitor, single point]","inconclusive: 1.9 µM [inhibitor, single point]","inconclusive: 1.51 µM [inhibitor, single point]",inactive: -2.02% [at 1.12 µM]
C(=Cc1nc(-c2ccccc2)oc1Nc1ccc2ccccc2c1)c1ccccc1,"inconclusive: 3.78 µM [inhibitor, single point]","inconclusive: 1.51 µM [inhibitor, single point]","inconclusive: 1.69 µM [inhibitor, single point]","inconclusive: 4.26 µM [inhibitor, single point] and inconclusive: 1.9 µM [inhibitor, single point] and inactive",–
Cc1cccc(C)c1Nc1oc(-c2ccccc2)nc1-c1cccc2ccccc12,"inconclusive: 4.24 µM [inhibitor, single point]","inconclusive: 1.51 µM [inhibitor, partial curve] and inconclusive: 1.69 µM [inhibitor, partial curve]","inconclusive: 1.69 µM [inhibitor, single point] and inconclusive: 4.26 µM [inhibitor, single point]","inconclusive: 2.39 µM [inhibitor, single point]",–
COc1ccc([C@]23Cc4ccccc4[C@H](O2)C2=C(CCCC2=O)O3)cc1,"inconclusive: 1.5 µM [inhibitor, partial curve]","inconclusive: 1.69 µM [inhibitor, partial curve]","inconclusive: 4.26 µM [inhibitor, single point]","inconclusive: 1.51 µM [inhibitor, partial curve]",–
COC1=C[C@H](C(=O)NC2CCN(Cc3ccccc3)CC2)C(C)C(c2ccccc2)CC1=O (stereo partly drawn),"inconclusive: 4.24 µM [inhibitor, single point]","inconclusive: 1.69 µM [inhibitor, single point]","inconclusive: 0.379 µM [inhibitor, single point]","inconclusive: 1.51 µM [inhibitor, partial curve, poor fit]",–
Oc1c(CN2CCOCC2)cc2c(c1-c1c(O)c(CN3CCOCC3)cc3c1CCCC3)CCCC2,"inconclusive: 4.24 µM [inhibitor, single point]","inconclusive: 2.13 µM [inhibitor, single point]","inconclusive: 1.9 µM [inhibitor, partial curve]","inconclusive: 1.9 µM [inhibitor, single point]",–
COc1cc2c(cc1OC)[C@@H]1O[C@](c3ccsc3)(C2)Oc2c1c(=O)oc1ccc(F)cc21,"inconclusive: 1.5 µM [inhibitor, partial curve, poor fit]","inconclusive: 2.13 µM [inhibitor, partial curve, poor fit]","inconclusive: 2.13 µM [inhibitor, partial curve, poor fit]","inconclusive: 3.01 µM [inhibitor, single point]",–
COC(=O)N1C(C=CC=Cc2ccc(OC)cc2)=Cc2ccccc2C1CC(C)=O (stereo not drawn),"inconclusive: 1.5 µM [inhibitor, partial curve]","inconclusive: 1.69 µM [inhibitor, partial curve]",active: 1.51 µM,"inconclusive: 2.62 µM [inhibitor, partial curve]",–
CC(C)OC(=O)[C@H](C)NC(=O)N1CCc2nc(COc3ccccc3)c3c(c2C1)CO[C@@H](C)C3,"inconclusive: 1.5 µM [inhibitor, partial curve]","inconclusive: 1.51 µM [inhibitor, partial curve]",active: 1.35 µM,active: 2.62 µM,–
CC(CCN1CCc2nc(-c3ccccc3)c(-c3ccccc3)cc2C1)=NO[C@H](C)CN1CCCCc2nc(C)c(C)cc21,"inconclusive: 1.34 µM [inhibitor, partial curve]","inconclusive: 3.79 µM [inhibitor, single point]","inconclusive: 4.26 µM [inhibitor, single point]","inconclusive: 3.7 µM [inhibitor, single point]",–

# Reference: PubChem BioAssay (NCATS)
